Results reported in PubChem BioAssay (NCATS).
“And” between values parts separate entries of the source, which are not always exact repeats. Equal values may be shown once. The shares of active, inactive and inconclusive entries below differ from those in the screen. Potencies beside an inconclusive call are fits to weak or partial responses and may not hold up. For some assays here: “Side channel” marks fits to a control or component signal instead of the main read-out. A structure can be active in one record and inactive in another. The source made the active and inactive calls. Unless noted, calls follow the shape of the dose curve; as a rule, active = well fitted inhibition curve with a large enough effect; inconclusive = small, poorly fitted or top-dose-only effect; inactive = no such curve, though single readings can be large or run the other way.

system: not listed separately; experiment: NS1 protein of Zika virus - qHTS assay to identify small molecule inhibitors in human HEK 293 cells (AID 1347053); conditions: HEK293 ZIKV MR766 infection, NS1 TR-FRET, 24 h; series mostly up to 46.1 µM; activity change, negative = inhibition: at the top concentration; also: nearly all actives have a fitted effect of over 55% in size;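 as to activity change, negative = inhibition: plate controls were infected untreated cells for no effect and uninfected cells for full effect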
How it was run: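 TR-FRET signal from two anti-ZIKV NS1 antibodies quantified NS1 in HEK 293 cells 24 h after MR766 infection at MOI = 0.5; compounds were added 1 h before virus. Uninfected cells and infected cells defined the NS1 normalization range.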
Potency is read from the fitted curve at half-maximal effect; tags tell the direction and shape of the fitted curve.

Row | Compound | Potency | activity change, negative = inhibition
1 | S=C(Nc1ccccc1)Nc1nccs1 | inconclusive: 2.82 µM [inhibitor, full curve, poor fit] | 
2 | O=C(Nc1ccc([N+](=O)[O-])cc1Cl)c1cc(Cl)ccc1O | active: 1.48 µM and inconclusive: 5.01 µM [inhibitor, full curve, poor fit] | 
3 | O=[N+]([O-])c1ccc2c(c1)S(=O)(=O)C=C2 | inconclusive: 3.55 µM [inhibitor, full curve, poor fit] | 
4 | Cc1ccc(O)c(N=Nc2ccccc2)n1 | inconclusive: 5.62 µM [inhibitor, single point] | 
5 | CC(=O)/C=C1\C(=O)N(C)c2ccccc21 | inconclusive: 35.5 µM [inhibitor, single point] | 
6 | O=Nc1c(-c2c(O)[nH]c3cc(Br)ccc23)[nH]c2ccccc12 | inconclusive: 37.2 µM [inhibitor, single point] and inconclusive: 35.5 µM [inhibitor, single point] | 
7 | O=C1c2c(O)ccc(O)c2C(=O)c2c(NCCNCCO)ccc(NCCNCCO)c21 | active: 833 nM and inconclusive: 631 nM [inhibitor, full curve, poor fit] and inconclusive: 562 nM [inhibitor, full curve, poor fit] | 
8 | Nc1ccc(-c2ccc3ccccc3n2)cc1 |  | inactive: 3.81%
9 | O=C1c2ccccc2C(=O)c2c(NCCc3ccc(O)cc3)ccc(NCCc3ccc(O)cc3)c21 | inconclusive: 35.5 µM [inhibitor, single point] | 

molecular target: Tyrosine-protein phosphatase non-receptor type substrate 1 (Homo sapiens) + Leukocyte surface antigen CD47 (Homo sapiens) (UniProt P78324+Q08722); experiment: CD47-SIRPalpha protein protein interaction - LANCE assay qHTS validation (AID 1347057; active = well fitted curve in the direction sought with a large enough effect in the signal ratio, with a control signal flat, not every such curve was filed as active; inconclusive = small, poorly fitted or top-dose-only effect, or effect the other way, or a change in a side signal; inactive = no such curve, though single readings can be large or run the other way; the % refers to the signal ratio; as to activity change, negative = inhibition: 0% is about no effect); conditions: Recombinant CD47-His / biotin-SIRPalpha, TR-FRET ratio; series mostly up to 38.3 µM; activity change, negative = inhibition: at the top concentration
How it was run: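 Inhibition of soluble CD47/SIRPalpha ectodomain association by titrated compounds, measured as 665/615 nm time-resolved FRET ratio after sequential 30 min room-temperature incubations.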

Sequence of UniProt P78324 (P78324 whole entry, looked up, the tested form may be a part): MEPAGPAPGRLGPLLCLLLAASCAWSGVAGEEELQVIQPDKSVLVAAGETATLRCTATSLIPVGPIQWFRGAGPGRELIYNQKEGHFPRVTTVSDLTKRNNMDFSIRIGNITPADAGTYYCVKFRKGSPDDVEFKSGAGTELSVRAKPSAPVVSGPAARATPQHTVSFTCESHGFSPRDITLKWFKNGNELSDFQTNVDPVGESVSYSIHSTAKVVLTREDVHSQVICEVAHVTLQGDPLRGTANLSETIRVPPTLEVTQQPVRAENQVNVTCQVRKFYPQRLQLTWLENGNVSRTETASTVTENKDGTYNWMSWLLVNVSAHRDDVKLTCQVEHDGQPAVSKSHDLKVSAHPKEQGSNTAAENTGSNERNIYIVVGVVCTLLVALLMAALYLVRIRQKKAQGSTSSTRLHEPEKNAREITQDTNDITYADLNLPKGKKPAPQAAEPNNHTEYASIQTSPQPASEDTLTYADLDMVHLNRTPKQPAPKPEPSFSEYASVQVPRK
Sequence of UniProt P78324 (Q08722 whole entry, looked up, the tested form may be a part): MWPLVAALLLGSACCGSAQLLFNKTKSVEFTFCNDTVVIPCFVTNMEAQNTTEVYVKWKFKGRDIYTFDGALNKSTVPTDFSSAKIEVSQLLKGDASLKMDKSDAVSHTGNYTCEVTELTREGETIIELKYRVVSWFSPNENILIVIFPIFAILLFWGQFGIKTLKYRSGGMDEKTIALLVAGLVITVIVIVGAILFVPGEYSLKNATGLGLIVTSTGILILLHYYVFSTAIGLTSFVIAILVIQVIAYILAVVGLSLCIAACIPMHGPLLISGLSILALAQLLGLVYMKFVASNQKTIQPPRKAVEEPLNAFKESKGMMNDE

Row | Compound | Potency | activity change, negative = inhibition
10 | N#C/C(=C\c1ccc(O)c(O)c1)C(=O)Nc1ccccc1 | inconclusive: 16.5 µM [side channel, falling, single point] | 
11 | O=[N+]([O-])c1ccc2c(c1)S(=O)(=O)C=C2 |  | inactive: 0.593%
12 | COC1(C2=NCCN2)COc2ccccc2O1 (centres undefined) |  | inactive: 1.47%
13 | O=C1c2c(O)ccc(O)c2C(=O)c2c(NCCNCCO)ccc(NCCNCCO)c21 | inconclusive: 5.85 µM [side channel, falling, partial curve] | 
14 | CN(C)c1ccc(/C=C2\C(=O)Nc3ccccc32)cc1 | inconclusive: 16.5 µM [side channel] | 
